# According to the supplement of paper PMC12217912:
# The list shows a part of the results. The full chains were built here from the parent and the listed change. Values near 0.05 are background.
# B1: TEV protease; numbered along this chain (parent)
# chain: MGESLFKGPRDYNPISSSICHLTNESDGHTTSLYGIGFGPFIITNKHLFRRNNGTLVVQSLHGVFKVKDTTTLQQHLVDGRDMIIIRMPKDFPPFPQKLKFREPQREERICLVTTNFQTKSMSSMVSDTSCTFPSGDGIFWKHWIQTKDGQCGSPLVSTRDGFIVGIHSASNFTNTNNYFTSVPKNFMELLTNQEAQQWVSGWRLNADSVLWGGHKVFMVKPEEPFQPVKEATQL
# Variants of: B1
# Assay: raw area under fraction-flipped curve 0-4 h after induction (AUC4h, not background-subtracted), DNA-recorder readout of cleavage of the substrate (dimensionless); higher = more cleavage of the substrate by the protease variant
# Details: temperature: 34 °C; time window: 0-4 h after rhamnose induction
# 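Note: Bxb1 expression induced with 0.2% (w/v) L-rhamnose at OD600 near 0.5, cultures sampled hourly, flipped fraction per protease–substrate barcode pair counted by paired-end Illumina sequencing.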
Variant,area with substrate ENLFFQS,area with substrate ENLHFQS,area with substrate ENLLFQS,area with substrate ENLMFQS,area with substrate ENLNFQS,area with substrate ENLQFQS,area with substrate ENLSFQS,area with substrate ENLEFQS,area with substrate ENLKFQS,area with substrate ENLPFQS
H76K,0.0629,0.0677,0.0788,0.052,0.0479,0.0591,0.049,,,
H76V,,,,,,,0.0627,0.0689,0.0787,0.0533
N186G,,,0.056,,,,0.0838,,,0.0698
F117A,0.0802,0.0693,,,0.0927,,0.066,0.11,0.0835,
V217F,,,0.0559,0.0518,0.0439,,0.0609,0.0641,0.0746,
Q75V,0.0701,0.0673,0.0641,,,0.0736,,0.0542,0.0565,0.0635
P225Q,0.0816,0.053,,0.0599,0.0781,,0.096,0.0852,0.121,
S171A,0.0693,,0.121,,0.0608,,,,,
F173N,,,,0.0586,0.0677,,,0.061,0.0689,0.0604
G37Y,0.0583,0.0442,,,,0.0514,0.0548,0.0458,,0.0462
F226T,0.101,,,,,,0.081,0.0683,,0.0712
I19A,,0.0655,0.0656,,0.0589,0.0767,0.0532,,0.0699,
V113F,0.0574,,,,0.0508,,,,0.0921,
N206Y,0.112,0.0648,0.0808,0.0688,0.0669,,0.0589,0.0699,,0.0384
T70K,,,,,,0.0684,0.0682,0.05,0.0516,0.0739
L99F,0.0262,,,,0.0706,,0.0601,,0.067,0.0585
K7L,0.0801,0.0559,,,0.0647,,0.0607,0.0695,0.0709,0.0617
N175H,0.106,,0.0591,,,0.0548,0.0525,0.055,,
L211W,,0.0795,0.0815,,,,0.0861,,,
L211R,,0.0514,,,0.0828,,0.0548,0.0139,0.0535,0.0827
F6I,,0.0717,,,,,,,0.0538,

# Same assay, conditions: temperature: 34 °C; time window: 0-4 h after rhamnose induction
Variant,area with substrate ENLTFQS,area with substrate ENLWFQS,area with substrate ENLIFQS,area with substrate ENLGFQS,area with substrate ENLRFQS,area with substrate ENLVFQS
H76V,0.0731,,,,,
N186G,,0.0684,,,,
F117A,,0.0727,0.108,,,
V217F,,0.0719,,,,
Q75V,0.084,,0.115,,,
P225Q,,0.0707,,0.0583,0.0945,
S171A,,,0.0701,,0.0734,
F173N,,,0.0657,,0.0778,
G37Y,0.0649,0.086,,0.063,0.066,
F226T,,,,,0.069,
I19A,,0.079,,0.0679,0.0552,
V113F,,,,,0.0738,
N206Y,,,0.0678,0.0613,,
L99F,,,,,0.0629,0.0856
K7L,,,0.0695,,,0.0678
N175H,,,0.0881,,0.0658,
G8Y,,,0.0625,,,
L211W,,,0.1,0.0729,0.0714,
L211R,,,,,,0.0803
